Reference: the supplement of paper PMC4166925
± gives the standard deviation of the averaged measurements. Whole data set: some 33,000 sequences, median “E-score (dimensionless, -0.5 to 0.5)” near -0.046, cut for the highest 2% near 0.36. Some of the results follow.

system: T1, SpTbr T-box DNA-binding domain (GST fusion); assay: PBM E-score of 8-mer (E-score (dimensionless, -0.5 to 0.5)); Tbr is Tbrain of the sea star Patiria miniata (Pm) or the sea urchin Strongylocentrotus purpuratus (Sp); higher = stronger binding preference; most listed sequences are background and not binding sites; conditions: the construct has about 5 more residues each side
T1 sequence: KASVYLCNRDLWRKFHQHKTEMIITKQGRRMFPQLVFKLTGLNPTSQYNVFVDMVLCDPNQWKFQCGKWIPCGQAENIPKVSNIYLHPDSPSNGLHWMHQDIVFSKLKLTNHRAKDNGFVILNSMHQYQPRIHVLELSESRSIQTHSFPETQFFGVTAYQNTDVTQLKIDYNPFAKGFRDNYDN
Method in brief: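 Each ungapped 8-mer received an enrichment E-score from the Universal PBM Analysis Suite, averaged over duplicate arrays. The proteins were Tbr T-box DNA-binding domains, covering the whole T-box plus about five flanking residues, fused to GST and expressed in BL21 E. coli at 20 °C before glutathione affinity purification. Universal Agilent oligonucleotide arrays were made double-stranded by primer extension and incubated with 200 nM protein in PBS (pH 7.5). The arrays were then scanned and quantified, and every 8-mer was scored from probe intensities.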

| Sequence | PBM E-score of 8-mer |
| --- | --- |
| GTAGTTGA | 0.0599 ± 0.0024 |
| CATGCGGA | -0.0716 ± 0.037 |
| CCAGGATA | -0.078 ± 0.074 |
| AGTGCACC | -0.0193 ± 0.035 |
| ACACACAG | 0.3018 ± 0.0005 |
| ACGTTATA | -0.0104 ± 0.028 |
| ATGATGAG | -0.197 ± 0.017 |
| CGCACCCA | 0.372 ± 0.029 |
| CAGCACGC | 0.158 ± 0.014 |
| GTCTACTA | -0.128 ± 0.044 |
| ACAACGGC | 0.109 ± 0.046 |
| ATACAATA | -0.241 ± 0.059 |
| ACCCTCGC | 0.147 ± 0.034 |
| CATGAGAG | -0.11 ± 0.025 |
| AGGCGTTG | 0.355 ± 0.0053 |
| ACACCTCC | 0.4854 ± 0.0043 |
| GTGGATCA | -0.0261 ± 0.024 |
| ACCAATCT | -0.217 ± 0.035 |
| CTGATGAC | 0.148 ± 0.0058 |
| GCGGATGA | 0.0166 ± 0.08 |
| AACCTCCC | -0.0867 ± 0.0052 |
| CGGTGATA | 0.111 ± 0.0075 |
| GGAATTTA | -0.0269 ± 0.075 |
| AAGCAACT | -0.143 ± 0.087 |
| CTATCGCC | 0.158 ± 0.0067 |

| Sequence | PBM E-score of 8-mer |
| --- | --- |
| CAGATTCC | -0.0334 ± 0.019 |
| CGCTAATC | 0.101 ± 0.022 |
| CCGTTAGC | 0.302 ± 0.01 |
| AAAAAACG | -0.0376 ± 0.032 |
| AAATCGTG | 0.159 ± 0.0075 |
| TACCGCGA | 0.0812 ± 0.035 |
| GTGAAAGA | 0.274 ± 0.029 |
| AGTAGTTG | 0.0394 ± 0.029 |
| CTGACCTC | -0.0999 ± 0.046 |
| ATCAGAAG | -0.0682 ± 0.087 |
| AGGCAGCG | -0.104 ± 0.026 |
| CACCTCAC | 0.444 ± 0.012 |
| CTTGTATC | -0.07 ± 0.021 |
| GCCGGACC | -0.135 ± 0.018 |
| GATGTCCA | -0.22 ± 0.056 |
| TGAGTGAA | -0.0573 ± 0.0023 |
| GTAGGGCA | -0.357 ± 0.035 |
| ATCCCTTG | 0.00199 ± 0.065 |
| CAAGGAAG | -0.242 ± 0.021 |
| GAGATACC | 0.0112 ± 0.035 |
| AGAGGGGC | -0.283 ± 0.029 |
| GCTGTAAC | -0.0609 ± 0.029 |
| AATCACCC | 0.1118 ± 0.00022 |
| AAAGATAC | -0.167 ± 0.028 |
| ACCGCCTC | -0.141 ± 0.094 |

| Sequence | PBM E-score of 8-mer |
| --- | --- |
| AAGGCAAC | 0.0355 ± 0.038 |
| ACGGGACA | -0.0441 ± 0.016 |
| CAGATTTA | -0.287 ± 0.035 |
| AAGGTCGC | 0.184 ± 0.011 |
| ACAGATCT | -0.0769 ± 0.007 |
| CTATTCAG | -0.128 ± 0.026 |
| AATTGAGG | -0.138 ± 0.018 |
| AAGATCCT | -0.191 ± 0.043 |
| GCCCAAGA | -0.219 ± 0.088 |
| ATATATCA | -0.104 ± 0.047 |
| GTGCATAA | -0.0784 ± 0.018 |
| GTGGTCCA | -0.184 ± 0.014 |
| ACCAAACT | -0.131 ± 0.038 |
| ACCATGAA | -0.0545 ± 0.054 |
| AGTTGGCC | -0.112 ± 0.0038 |
| GCTTCCAC | 0.0999 ± 0.075 |
| ATGCCAGA | -0.1829 ± 0.0011 |
| CGGGCGCC | -0.13 ± 0.027 |
| ATTAGATG | -0.199 ± 0.052 |
| CATTCAAC | -0.212 ± 0.042 |
| TAAGGGAA | -0.28 ± 0.032 |
| CATCCGGC | -0.0875 ± 0.055 |
| TTAAAGAA | -0.0841 ± 0.01 |
| CGTTATAC | -0.0795 ± 0.028 |
| CCTCGGCC | -0.158 ± 0.034 |

| Sequence | PBM E-score of 8-mer |
| --- | --- |
| ACACCCAC | 0.3288 ± 0.0018 |
| CAAATAAG | -0.0181 ± 0.034 |
| AGTAACTA | -0.131 ± 0.019 |
| TCACTAGA | 0.112 ± 0.0083 |
| CTTAGTCC | -0.17 ± 0.016 |
| CGTGTGGA | 0.306 ± 0.0073 |
| TAGCCGAA | -0.1327 ± 0.0011 |
| TACCGCTA | 0.0813 ± 0.0076 |
| AGAACCGC | 0.134 ± 0.006 |
| AGACACTC | 0.129 ± 0.029 |
| CAGTAATG | 0.0486 ± 0.063 |
| ATACTCTA | -0.117 ± 0.035 |
| GTCGCCGA | -0.058 ± 0.026 |
| AACCCGTC | 0.12 ± 0.047 |
| GCAGTAAC | 0.0299 ± 0.013 |
| ACTTCAAC | 0.105 ± 0.043 |
| GAGACACA | 0.15 ± 0.01 |
| AAAAACTA | -0.0466 ± 0.032 |
| CAAAATAG | -0.146 ± 0.0023 |
| AGCGACAG | 0.24 ± 0.0054 |
| AGCATGGA | -0.0258 ± 0.071 |
| CATCAAGA | -0.248 ± 0.021 |
| AACGTAAC | -0.188 ± 0.046 |
| AAAAGTCT | -0.134 ± 0.052 |
| TGAATACA | -0.177 ± 0.01 |

| Sequence | PBM E-score of 8-mer |
| --- | --- |
| AAGTCGTA | -0.155 ± 0.058 |
| ATATATCG | -0.0542 ± 0.011 |
| ACTCCCTG | -0.113 ± 0.038 |
| GGGGGCAA | -0.0481 ± 0.018 |
| CAGACCTC | -0.15 ± 0.075 |
| CAGGGCAA | -0.237 ± 0.011 |
| AGTCAACA | 0.268 ± 0.036 |
| GTACAATA | -0.338 ± 0.055 |
| TACGGCGA | -0.171 ± 0.11 |
| AGAGCATC | -0.154 ± 0.1 |
| GGCGGCGA | 0.0793 ± 0.018 |
| CCGAGTAC | -0.145 ± 0.053 |
| CCTATAAC | -0.0822 ± 0.018 |
| CACCCGAG | 0.069 ± 0.066 |
| ACTTGGCT | -0.211 ± 0.036 |
| AGCTATTC | -0.162 ± 0.022 |
| GGCGCTCA | 0.0148 ± 0.02 |
| CTAACAGA | 0.171 ± 0.054 |
| GATCTCCC | -0.105 ± 0.023 |
| ACAACAAT | 0.167 ± 0.0095 |
| ATGCAGTC | -0.0765 ± 0.095 |
| AGCTCCTG | -0.149 ± 0.038 |
| AATAAAGG | -0.242 ± 0.049 |
| TGAGTTAA | -0.15 ± 0.002 |
| CCCAAGAG | -0.169 ± 0.035 |

| Sequence | PBM E-score of 8-mer |
| --- | --- |
| AGGGCACC | -0.223 ± 0.011 |
| AGAAGCCG | -0.245 ± 0.083 |
| AGCGACTC | 0.0837 ± 0.035 |
| GTGGTGTA | 0.186 ± 0.013 |
| GCTAGTCA | 0.00479 ± 0.017 |
| CGCAGAGA | -0.217 ± 0.082 |
| GGTGAAAA | 0.126 ± 0.095 |
| AATAAATA | -0.133 ± 0.013 |
| AGTCCTGC | -0.112 ± 0.076 |
| CTGAGCAC | 0.0441 ± 0.071 |
| CCCCCTGC | -0.29 ± 0.046 |
| AACTATCT | 0.00728 ± 0.06 |
| AAGGGGTC | -0.131 ± 0.023 |
| GCAGACGC | -0.148 ± 0.0026 |
| GAGGTACA | -0.248 ± 0.0098 |
| CTCGTCGA | 0.0037 ± 0.0045 |
| GCCTCCCC | -0.116 ± 0.039 |
| AACTGAAT | -0.218 ± 0.04 |
| CTATTCGC | 0.275 ± 0.018 |
| GTAATCAA | 0.0372 ± 0.052 |
| CGACATTC | -0.0199 ± 0.12 |
| AGAGTACT | -0.111 ± 0.0057 |
| CAACTTGG | 0.152 ± 0.022 |
| AGGGTGAG | 0.216 ± 0.048 |
| AGGGTGAC | 0.239 ± 0.047 |

| Sequence | PBM E-score of 8-mer |
| --- | --- |
| GACCTTAA | -0.188 ± 0.0048 |
| CTATATCC | -0.0238 ± 0.0011 |
| ATATCCTC | -0.148 ± 0.0028 |
| ATTCATAA | -0.137 ± 0.0041 |
| CCGCACAG | 0.152 ± 0.013 |
| CGGCAAGC | -0.15 ± 0.023 |
| CCCTGGCG | 0.0703 ± 0.082 |
| CTCGTGCC | -0.0876 ± 0.037 |
| AGGCAATG | -0.0948 ± 0.048 |
| CCATGACA | 0.144 ± 0.056 |
| CTGCTGGA | -0.26 ± 0.004 |
| ACCTATTA | 0.0258 ± 0.001 |
| ATAAACTC | -0.0618 ± 0.002 |
| CAGTATCG | 0.0559 ± 0.018 |
| ACAAGCCA | 0.103 ± 0.0058 |
| GACGGGAA | 0.0649 ± 0.056 |
| GAAGTCCC | -0.099 ± 0.05 |
| CATTTCTA | 0.0766 ± 0.072 |
| AGAGTTGA | 0.105 ± 0.043 |
| AGATTTCG | 0.0333 ± 0.039 |
| TGTACCAA | -0.0585 ± 0.11 |
| ACCGGCCG | -0.189 ± 0.029 |
